The subject of this assay is V-C8 + BRCA2 (BRCA2-proficient hamster cells). Kind of assay: normalised cell viability (fraction of plate median); higher = more viable cells (less toxic). The following applies: 5 µM. An outline of the steps: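 Cell viability was measured with a resazurin assay, normalised to the plate median (modified robust per cent of sample) and averaged over triplicate wells. Hamster V-C8 cells lacking BRCA2 and V-C8 cells with BRCA2 restored were seeded in 96-well plates. After 24 h, library drugs from 10 mM DMSO stocks were added at a final 5 μM in 100 μl medium and left for 3 days (screen 1) or 6 days (screen 2), with solvent-only wells alongside.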

Structures can show the parent of a compound that is named as a salt. ± gives the standard deviation of the averaged measurements. In all, about 1,300 compounds were measured (“normalised cell viability”: median about 1, lowest 2% from about 0.15 on). The list shows a part of the results.

On to `CNCC[C@@H](Oc1ccccc1C)c1ccccc1` [Tomoxetine hydrochloride], for which the normalised cell viability was 0.99 ± 0.038 (treatment time: 3 days) and 0.884 ± 0.022 (treatment time: 6 days).
The like results for `O=C(CCCCC(=O)Nc1c(I)cc(I)c(C(=O)O)c1I)Nc1c(I)cc(I)c(C(=O)O)c1I` [Iodipamide] were, in that order, 1.07 ± 0.05 and 1.02 ± 0.06.
Take `COCCCOc1ccnc(C[S+]([O-])c2nc3ccccc3[nH]2)c1C` (stereo not given) [Rabeprazole Sodium salt]: the normalised cell viability by setting is: (treatment time: 3 days) 0.924 ± 0.024; (treatment time: 6 days) 1.01 ± 0.019.
As for `O=C(O)Cc1cc(I)c(Oc2ccc(O)c(I)c2)c(I)c1` [Tiratricol, 3,3',5-triiodothyroacetic acid], the normalised cell viability came out at 1.02 ± 0.021 (treatment time: 3 days) and 1.08 ± 0.1 (treatment time: 6 days).
The like results for `CCCCOC(=O)c1ccc(O)cc1` [Butylparaben] were, in that order, 1.01 ± 0.016 and 1.14 ± 0.043.
`CCCc1nc2c(C)cc(-c3nc4ccccc4n3C)cc2n1Cc1ccc(-c2ccccc2C(=O)O)cc1` [Telmisartan]: the normalised cell viability was 0.97 ± 0.036 (treatment time: 3 days) and 0.936 ± 0.031 (treatment time: 6 days).
For `CC(=O)/N=c1/sc(S(N)(=O)=O)nn1C` [Methazolamide], the normalised cell viability runs as follows: (treatment time: 3 days) 1.08 ± 0.062; (treatment time: 6 days) 0.977 ± 0.052.
As to `N=C(N)N1CCc2ccccc2C1` [Debrisoquin sulfate], the normalised cell viability runs as follows: (treatment time: 3 days) 1.081 ± 0.01; (treatment time: 6 days) 1.03 ± 0.017.
On to `CCCCC1C(=O)N(c2ccccc2)N(c2ccccc2)C1=O` [Phenylbutazone], for which the normalised cell viability runs as follows: (treatment time: 3 days) 1.007 ± 0.01; (treatment time: 6 days) 0.848 ± 0.16.
Regarding `O=C(Nc1ccccc1)OCC(CN1CCCCC1)OC(=O)Nc1ccccc1` (stereo not given) [Diperodon hydrochloride], the normalised cell viability was determined as 0.992 ± 0.073 (treatment time: 3 days) and 0.992 ± 0.034 (treatment time: 6 days).
As to `CCCC(=O)Nc1ccc(OCC(O)CNC(C)C)c(C(C)=O)c1` (stereo not given) [Acebutolol hydrochloride], the normalised cell viability (treatment time: 3 days) amounted to 0.99 ± 0.034 and the normalised cell viability (treatment time: 6 days) was 1.04 ± 0.012.
Take `CC(=O)Nc1ccc(OCC(O)CNC(C)C)cc1` (stereo not given) [Practolol]: the normalised cell viability by setting is: (treatment time: 3 days) 1.06 ± 0.025; (treatment time: 6 days) 1.05 ± 0.043.
With `CN1[C@@H]2CC[C@H]1C[C@@H](OC(c1ccccc1)c1ccccc1)C2` [Benztropine mesylate], the normalised cell viability was found to be 1.05 ± 0.04 (treatment time: 3 days) and 0.981 ± 0.028 (treatment time: 6 days).
Turning to `N=C(N=C(N)N)N1CCOCC1` [Moroxidine hydrochloride], the normalised cell viability (treatment time: 3 days) was determined as 0.911 ± 0.03 and the normalised cell viability (treatment time: 6 days) came to 0.98 ± 0.047.
Taken in the same sequence, the figures for `CC(=O)OCC(=O)[C@@]12OC3(CCCC3)O[C@@H]1C[C@H]1[C@@H]3CCC4=CC(=O)C=C[C@]4(C)[C@@]3(F)[C@@H](O)C[C@@]12C` [Amcinonide] were 1.01 ± 0.07 and 1 ± 0.05.
As to `Cc1cccc(C)c1NC(=O)CN1CCN(CCCC(c2ccc(F)cc2)c2ccc(F)cc2)CC1` [Lidoflazine], the normalised cell viability by setting is: (treatment time: 3 days) 0.719 ± 0.041; (treatment time: 6 days) 0.803 ± 0.093.
Turning to `CC(=O)O[C@]1(C(C)=O)CC[C@H]2[C@@H]3C=C(C)C4=CC(=O)CC[C@]4(C)[C@H]3CC[C@@]21C` [Megestrol acetate], the normalised cell viability was found to be 0.842 ± 0.17 (treatment time: 3 days) and 0.924 ± 0.038 (treatment time: 6 days).
Consider `CC[C@@]1(O)C(=O)OCc2c1cc1n(c2=O)Cc2cc3c(CN(C)C)c(O)ccc3nc2-1` [Topotecan], for which the normalised cell viability runs as follows: (treatment time: 3 days) 0.165 ± 0.0065; (treatment time: 6 days) 0.167 ± 0.011.
In the case of `Nc1nnc(-c2cccc(Cl)c2Cl)c(N)n1` [Lamotrigine], the normalised cell viability runs as follows: (treatment time: 3 days) 0.987 ± 0.072; (treatment time: 6 days) 0.986 ± 0.044.
With `Clc1cc(Cl)c(OCC#CI)cc1Cl` [Haloprogin], the normalised cell viability worked out at 0.278 ± 0.01 (treatment time: 3 days) and 0.247 ± 0.048 (treatment time: 6 days).
In the case of `Nc1nc(=O)[nH]cc1F` [Flucytosine], the normalised cell viability is, setting by setting: (treatment time: 3 days) 0.964 ± 0.058; (treatment time: 6 days) 1.02 ± 0.05.
`O=C1C(O)=C(O)C(=O)C(O)=C1O` [Tetrahydroxy-1,4-quinone monohydrate]: the normalised cell viability is, setting by setting: (treatment time: 3 days) 0.978 ± 0.037; (treatment time: 6 days) 1.02 ± 0.014.
The like results for `Cc1nccn1CC1CCc2c(c3ccccc3n2C)C1=O` (stereo not given) [Ondansetron Hydrochloride] were, in that order, 1.104 ± 0.0039 and 1.22 ± 0.077.
The like results for `CC(=O)NC[C@H]1CN(c2ccc(N3CCOCC3)c(F)c2)C(=O)O1` [Linezolid] were, in that order, 1.06 ± 0.11 and 1.04 ± 0.04.
Consider `COc1ccc2c(c1)c(CC(=O)OCC(=O)O)c(C)n2C(=O)c1ccc(Cl)cc1` [Acemetacin], for which the normalised cell viability turned out to be 1.07 ± 0.033 (treatment time: 3 days) and 1.04 ± 0.11 (treatment time: 6 days).
Turning to `CCOCCn1c(N2CCCN(C)CC2)nc2ccccc21` [Emedastine], the normalised cell viability by setting is: (treatment time: 3 days) 1.07 ± 0.11; (treatment time: 6 days) 1.06 ± 0.032.
The like results for `CC[C@H](C)C(=O)O[C@H]1C[C@H](O)C=C2C=C[C@H](C)[C@H](CC[C@@H](O)C[C@@H](O)CC(=O)O)[C@H]21` [Pravastatin] were, in that order, 0.969 ± 0.14 and 1.02 ± 0.089.
In the case of `CC1=C(C(=O)O)N2C(=O)[C@@H](NC(=O)[C@H](N)c3ccccc3)[C@H]2SC1` [Cephalexin monohydrate], the normalised cell viability reads like this: (treatment time: 3 days) 1.22 ± 0.055; (treatment time: 6 days) 0.998 ± 0.057.
For `CC(C)(C)NCC(O)COc1cccc2c1CC(O)C(O)C2` (stereo not given) [Nadolol], the normalised cell viability (treatment time: 3 days) came to 1.03 ± 0.05 and the normalised cell viability (treatment time: 6 days) turned out to be 1.06 ± 0.089.
`CC(C)Cn1cnc2c(N)nc3ccccc3c21` [Imiquimod]: the normalised cell viability reads like this: (treatment time: 3 days) 1.02 ± 0.042; (treatment time: 6 days) 1.019 ± 0.0077.
For `NC(=O)N1c2ccccc2CC(=O)c2ccccc21` [Oxcarbazepine], the normalised cell viability is, setting by setting: (treatment time: 3 days) 1.113 ± 0.002; (treatment time: 6 days) 1.05 ± 0.033.
Turning to `Cc1cccc(Nc2ccncc2S(=O)(=O)NC(=O)NC(C)C)c1` [Torsemide], the normalised cell viability (treatment time: 3 days) turned out to be 1.08 ± 0.021 and the normalised cell viability (treatment time: 6 days) came out at 0.998 ± 0.024.
The like results for `CC1(C)O[C@@H]2[C@@H](CO[C@@]3(COS(N)(=O)=O)OC(C)(C)O[C@@H]23)O1` [Topiramate] were, in that order, 1.01 ± 0.063 and 1.03 ± 0.027.
Take `COc1cc(NS(=O)(=O)c2ccc(N)cc2)nc(OC)n1` [Sulfadimethoxine]: the normalised cell viability is, setting by setting: (treatment time: 3 days) 0.955 ± 0.019; (treatment time: 6 days) 0.907 ± 0.056.
Taken in the same sequence, the figures for `CC[N+](CC)(CC(=O)Nc1c(C)cccc1C)Cc1ccccc1` [Denatonium benzoate] were 1.03 ± 0.055 and 1.087 ± 0.0065.

These data come from the supplement of paper PMC6609913.
